Whole data set: some 2,700 sequences, median “arbitrary fluorescence units” near 4,100, cut for the highest 2% near 54,000. The list shows a part of the results.

This experiment has as its target T1, ETS1 (UniProt P14921).
T1 sequence: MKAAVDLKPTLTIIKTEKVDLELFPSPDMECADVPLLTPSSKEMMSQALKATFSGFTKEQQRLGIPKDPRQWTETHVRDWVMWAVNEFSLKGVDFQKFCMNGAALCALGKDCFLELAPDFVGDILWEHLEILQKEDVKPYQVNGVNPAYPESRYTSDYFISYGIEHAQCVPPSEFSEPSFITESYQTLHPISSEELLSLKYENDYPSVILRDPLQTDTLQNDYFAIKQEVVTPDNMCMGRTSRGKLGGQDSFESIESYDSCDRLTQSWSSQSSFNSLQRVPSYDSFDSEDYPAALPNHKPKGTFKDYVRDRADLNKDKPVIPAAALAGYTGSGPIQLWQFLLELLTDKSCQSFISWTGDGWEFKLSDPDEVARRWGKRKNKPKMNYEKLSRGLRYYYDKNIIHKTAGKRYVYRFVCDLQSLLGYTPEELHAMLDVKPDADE
Description: ETS1 binding intensity (PBM fluorescence) (arbitrary fluorescence units); higher = stronger binding. To be noted: ETS1 concentration 10 nM. The method, then: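 gcPBM on wild-type 36-bp genomic probes with two neighbouring ETS1 sites (4-24 bp apart). Recombinant human ETS1 (10 nM) was detected with anti-ETS1 antibody fluorescence. Values are medians over 3 replicate spots. The probes sit in constant array flanks that are not printed.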
Consider CAAACACATCCTGTTTGCACTTGACTTCCTGTTTTG, for which the ETS1 binding intensity was 37400.

The sequence CACAACAGCTGTTTCCTAGCCTTCCTGTGACCACAG yielded an ETS1 binding intensity of 420.

Take TCCGGTCGACGGCGGAAGGCGGAAGGCGGAGCGGTC: the ETS1 binding intensity stood at 335.

AAAGATGTTTCCTATATAGCAACAGGAAATCTCACT returned an ETS1 binding intensity of 1520.

TAGAGGAGCTGTTTCCTGCCGGAACTAATTATCTCG yielded an ETS1 binding intensity of 10900.

Sequence CACTGCTTCCGGGCCAGGACAAGCGCTTCCGGTCCC gave an ETS1 binding intensity of 24400.

CGACAGGATGACGCCTCCGTCTTTGTGCTTCCTGGG: the ETS1 binding intensity came to 868.

For AGAGAAAGGGGCCGGAAACGGAAGTGCGCGCCGAGG, the ETS1 binding intensity was found to be 12000.

For CTGCCCATCCTGCTCCTAGCAGCCACAGGAAGCTCT, the ETS1 binding intensity was found to be 1580.

Consider TAGCGCTCAGGAAGTACGACACCGGAAGGGGTGGGC, for which the ETS1 binding intensity is 3110.

Regarding TATAAAACCATTTCCTTCTCTGGGAAATGAGATGTC, the ETS1 binding intensity turned out to be 3370.

Consider CTCTGCACTTCCTCTGTGGGTTTACATCCTGTGGGC, for which the ETS1 binding intensity is 13000.

For TACTGTTTTCTTCCTGAGTCATATCCTCTCATTATG, the ETS1 binding intensity is 739.

As to GAAGGTTGACAGACTTCCTTCCGCACTTGGGTTTTT, the ETS1 binding intensity was 3050.

GACCACGCATTTCCTGCGCCCCCGGAAGTGGTGATA showed an ETS1 binding intensity of 23600.

In turn, GCGGCTGCGGGGGAAGTAGGGGGGAAGTGGGCGGGC had an ETS1 binding intensity of 1100.

For the sequence CCTACCCAGGAAGCCGCGGAGGGCCGGATATCACCG, the ETS1 binding intensity turned out to be 1640.

For CCCGGTAGCCGCCGGAAAACTTCCGCCGAGACCGGA, the ETS1 binding intensity stood at 4420.

Regarding AGAAGGGGAAATGACTGGTAGAGAGAGGAAGCCCGT, the ETS1 binding intensity stood at 286.

GACCGCAGGAAGGGACGCGGCCGCACTTCCGGCGAC: the ETS1 binding intensity came out at 8620.

Turning to TAGATGAAAGGATGTCACAGGCAGGAAAATGCCTTG, the ETS1 binding intensity is 193.

For TGTGCGGAAGAAGCGGCCCATGCTCTCGGAAGACGC, the ETS1 binding intensity is 181.

Sequence CCATTCATTTCCTGCCTCCCCGAGTTCCGGCTGCGG displayed an ETS1 binding intensity of 35800.

The sequence TCCCTGACTTCCTGTTCTCCTCACATCCTGTCACTA gave an ETS1 binding intensity of 29900.

The sequence GCTGCACAGCAGGAAGTGAGCAGGAAGTGAACTGGG came in with an ETS1 binding intensity of 10200.

ACCACCCTGACCACTTCCTTCCTGACCAGGCCAGGA: the ETS1 binding intensity stood at 3340.

In turn, CGTCCACTGGAGGCTTCCTTCCGGCGCCCGCGTGCC yielded an ETS1 binding intensity of 3590.

Sequence CTGGGCCGGAAATGCCTAATCTGAACTTCCGCCCTG had an ETS1 binding intensity of 20200.

GAGGCTTCTCGGATGTGCAGACAGGAAGCACTGGCC gave an ETS1 binding intensity of 1470.

Sequence AAAACTGTATCCGGGGGACGCCGTTTCCCTGCAGGG displayed an ETS1 binding intensity of 8980.

For TGTGCTCACAGGAAGTGGCAGCATCCGGCCTCCCAT, the ETS1 binding intensity was 15500.

On to AGGGACAACCCGGAAACCACATTTCCCAGCGTGCCG, for which the ETS1 binding intensity was 4050.

With AGTGCACTTCCTGGTGCTACCTTCATTTCCTGCCCT, the ETS1 binding intensity was determined as 19000.

GATCAGTTTCCGGCTGTGGACTACATTTCCCAGAAG showed an ETS1 binding intensity of 25800.

Turning to GAGAAAGGCTCTTTTCCTGCTTCCTGCTGTGTTTGC, the ETS1 binding intensity turned out to be 7060.

Sequence TACCTGTGGGATGTTGGAATGAACAGGAAATGCTAG came in with an ETS1 binding intensity of 629.

With TCTATGGTTTCCGGAGGCCTCACCGGAAGCCCTCGT, the ETS1 binding intensity turned out to be 14100.

TCACCCGGGATGTTTACCTCAGCCCATCCTGCCTGG: the ETS1 binding intensity was 244.

As for AAAGGCGGCAGGATGGAGGGGAGGATGTCGCTTCAG, the ETS1 binding intensity came to 359.

Sequence AGAAGCACACAAGGAAGTGTTTCCGGGACAGAGGGT displayed an ETS1 binding intensity of 9030.

GGAAGGGAGAGGGCGGAACTTCCGGCTGAGCCCCAG returned an ETS1 binding intensity of 21300.

GAACTGAGAGCGGAAATTACAGGAAGGCCTATTGTG displayed an ETS1 binding intensity of 8570.

In turn, AGAAAGGAAGTCATTGAGTTCATTCCAGGAAGCACA returned an ETS1 binding intensity of 1350.

TTACAAACAGCCTTCCGTCTCTTCCTGGTCAAGTCC showed an ETS1 binding intensity of 345.

Consider GGGCCTCGATTTCCGGGCGCGCTTCCGGGCCCCGGC, for which the ETS1 binding intensity worked out at 22700.

As to ATGCCGTCGTTTCCGGGGCTGCTTCCGAGCCGGACC, the ETS1 binding intensity is 16000.

CAGACAGGAAGCACTGGCCAGGACTGCGGATGTGAA showed an ETS1 binding intensity of 7680.

AGATCTAGAGGAAGTCTTGGCCAGGAAGACAACAAT showed an ETS1 binding intensity of 562.

As for ACCAGTAGATGCGGATGCAGTTTCCGGACGAGTCAT, the ETS1 binding intensity is 2840.

For GCCCGCTGTGGCGGATGAAAGGAAGCCGTCGGCGTG, the ETS1 binding intensity turned out to be 179.

With CGCGCCGGGTGTTTCCGCTACTTCCCTGCGGCGGGG, the ETS1 binding intensity was 7930.

In turn, ACGGCAAGGGAAGTGCAGATGGGCAGGAAGTCCCTC had an ETS1 binding intensity of 989.

Sequence CCAGCAGCTTCCTTGGGAAGATAGAGGATGTTGTGA yielded an ETS1 binding intensity of 807.

CACAGAAAAAGGAAGTTAGTGCATCCTGGAGCATAT returned an ETS1 binding intensity of 2350.

TGCTTGGGCCCCACTTCCTTCCTGCACCCCCGGGGT displayed an ETS1 binding intensity of 4480.

AGGCGAAGCTTCCTAGAGCGGCCCGGAAGTGCCCGG gave an ETS1 binding intensity of 2040.

In the case of TGGAGTGTCATTTCCTCTACAGGATGTGTCCCTGTG, the ETS1 binding intensity was determined as 12800.

Consider GCAGCACAAAGGAAGTTACCTCTTTCCGTTCTGGCC, for which the ETS1 binding intensity turned out to be 2430.

With GTATGGGATGTGGGCGGCCAGGACAAGATCCGGCCG, the ETS1 binding intensity came to 250.

Turning to CCAGCAGGAAGTGGCCCACCTGCAACAGGAATGCAG, the ETS1 binding intensity was 9950.

GCAGGATGCAGTGTGGAAGGATGTACAGAGGGTGGC displayed an ETS1 binding intensity of 308.

Consider TGAAGACTACATTTCCCAACATCCTTTACAGTTGGG, for which the ETS1 binding intensity came to 536.

CGCTTCCTTTCAATCCCCACATCCTCACCACCTGTT had an ETS1 binding intensity of 11900.

Regarding TCAGGAGGGCCATTTCCCTTTTCCTGCCCAGATGCT, the ETS1 binding intensity worked out at 3000.

In turn, GAGTTTAGCAGGAAGAGAAAACAGGAATAGTGACTC returned an ETS1 binding intensity of 389.

As to CGGACGCAGACACGGAAGCGGAAGTGCTGCCGAGCT, the ETS1 binding intensity is 4820.

In turn, AGCCTCGAGACCCGGAAAAGGAAGCCCGAAGGACTC registered an ETS1 binding intensity of 437.

In the case of ATCTCGCGCTGCCGGAAGCGGAACTACCCGGGTCCT, the ETS1 binding intensity came out at 4680.

Take AGAGGCAGAAGGAAACAGCCAGCTTCCTGAAGGGAA: the ETS1 binding intensity is 660.

Regarding GGGCCTCCGGAAAAACGCCCCGACTTCCTGCCCCGC, the ETS1 binding intensity was 5160.

The sequence GTGTCGGAAATAACCCAGCACGCGGCACTTCCTGTC gave an ETS1 binding intensity of 4740.

For the sequence CACAGAGCACAGGAAGTGAAGAGGAAACAGTGACCT, the ETS1 binding intensity was 9590.

Turning to GCCACCGCCCCTTCCGGGTCCGGAACGGCTCCAGCT, the ETS1 binding intensity was determined as 7050.

In turn, CAAAGTTCCTGTCTAGTTATTTTTTTACATCCTTTG yielded an ETS1 binding intensity of 9860.

ATAGAGCTCTGGAGGAAGCAGGAAGCGTGAGCAAGG showed an ETS1 binding intensity of 589.

Regarding AAGGAGAGGAAACCTGACCACGACAGGAAGTGACTT, the ETS1 binding intensity stood at 2770.

Take TGGCCCTGTAACTTCCTGATTTCCTGTGTACCTGTC: the ETS1 binding intensity is 12000.

As to TCCTCTTTCCGTTGTGAGCACCCTGCATCCTGGTGG, the ETS1 binding intensity was 3800.

On to GAGGGAGTAACACAGGAAGGAAGTGACTAGCACCAG, for which the ETS1 binding intensity was 1590.

As to CGCGCCCGCTGCCCGGAAGGAAGCCGTGGGCTGGCC, the ETS1 binding intensity amounted to 419.
